{
  "source": "the supplement of paper PMC8728848",
  "test_in_all_cases": "glycan array binding signal (z-score within array); higher = stronger binding",
  "details_in_all_cases": "glycan notation: IUPAC condensed, linker removed",
  "key": {"Fuc(a1-2)Gal": {"target": "Fuc(a1-2)Gal", "procedure,_shortened": "(§1)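 The Consortium for Functional Glycomics database supplied 3228 glycan arrays, of which those lacking an available protein sequence were dropped. The binding signal, a within-array Z-score, was averaged across arrays of the same protein sequence and across linkers. Negative scores can be read as non-binding.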"}, "Fuc(a1-2)Gal(b1-3)GalNAc": {"target": "Fuc(a1-2)Gal(b1-3)GalNAc", "procedure,_shortened": "as §1"}, "[1]": {"target": "Fuc(a1-2)Gal(b1-3)GalNAc(a1-3)[Fuc(a1-2)]Gal(b1-4)Glc", "procedure,_shortened": "as §1"}, "[2]": {"target": "Fuc(a1-2)Gal(b1-3)GalNAc(a1-3)[Fuc(a1-2)]Gal(b1-4)GlcNAc", "procedure,_shortened": "as §1"}, "[3]": {"target": "Fuc(a1-2)Gal(b1-3)GalNAc(b1-3)Gal", "procedure,_shortened": "as §1"}, "[4]": {"target": "Fuc(a1-2)Gal(b1-3)GalNAc(b1-3)Gal(a1-4)Gal(b1-4)Glc", "procedure,_shortened": "as §1"}, "[5]": {"target": "Fuc(a1-2)Gal(b1-3)GalNAc(b1-4)[Neu5Ac(a2-3)]Gal(b1-4)Glc", "procedure,_shortened": "as §1"}, "Fuc(a1-2)Gal(b1-3)GlcNAc": {"target": "Fuc(a1-2)Gal(b1-3)GlcNAc", "procedure,_shortened": "as §1"}, "[6]": {"target": "Fuc(a1-2)Gal(b1-3)GlcNAc(b1-2)Man(a1-3)[Fuc(a1-2)Gal(b1-3)GlcNAc(b1-2)Man(a1-6)]Man(b1-4)GlcNAc(b1-4)GlcNAc", "procedure,_shortened": "as §1"}, "[7]": {"target": "Fuc(a1-2)Gal(b1-3)GlcNAc(b1-2)Man(a1-3)[Fuc(a1-2)Gal(b1-3)GlcNAc(b1-2)Man(a1-6)]Man(b1-4)GlcNAc(b1-4)[Fuc(a1-6)]GlcNAc", "procedure,_shortened": "as §1"}, "[8]": {"target": "Fuc(a1-2)Gal(b1-3)GlcNAc(b1-3)Gal(b1-4)Glc", "procedure,_shortened": "as §1"}, "[9]": {"target": "Fuc(a1-2)Gal(b1-3)GlcNAc(b1-3)GalNAc", "procedure,_shortened": "as §1"}, "[10]": {"target": "Fuc(a1-2)Gal(b1-3)GlcNAc(b1-3)[Fuc(a1-2)Gal(b1-3)GlcNAc(b1-6)]GalNAc", "procedure,_shortened": "as §1"}, "[11]": {"target": "Fuc(a1-2)Gal(b1-3)GlcNAc(b1-3)[Gal(b1-4)GlcNAc(b1-6)]Gal(b1-4)Glc", "procedure,_shortened": "as §1"}, "[12]": {"target": "Fuc(a1-2)Gal(b1-3)GlcNAc(b1-3)[Neu5Ac(a2-6)Gal(b1-4)GlcNAc(b1-6)]Gal(b1-4)Glc", "procedure,_shortened": "as §1"}, "[13]": {"target": "Fuc(a1-2)Gal(b1-3)GlcNAc6S", "procedure,_shortened": "as §1"}, "[14]": {"target": "Fuc(a1-2)Gal(b1-3)[Fuc(a1-4)]GlcNAc", "procedure,_shortened": "as §1"}, "[15]": {"target": "Fuc(a1-2)Gal(b1-3)[Fuc(a1-4)]GlcNAc(b1-2)Man(a1-3)[Fuc(a1-2)Gal(b1-3)[Fuc(a1-4)]GlcNAc(b1-2)Man(a1-3)]Man(b1-4)GlcNAc(b1-4)GlcNAc", "procedure,_shortened": "as §1"}, "[16]": {"target": "Fuc(a1-2)Gal(b1-3)[Fuc(a1-4)]GlcNAc(b1-2)Man(a1-3)[Fuc(a1-2)Gal(b1-3)[Fuc(a1-4)]GlcNAc(b1-2)Man(a1-6)]Man(b1-4)GlcNAc(b1-4)[Fuc(a1-6)]GlcNAc(b1-4)[Fuc(a1-6)]GlcNAc", "procedure,_shortened": "as §1"}, "[17]": {"target": "Fuc(a1-2)Gal(b1-3)[Fuc(a1-4)]GlcNAc(b1-3)[Fuc(a1-3)[Gal(b1-4)]GlcNAc(b1-6)]Gal(b1-4)Glc", "procedure,_shortened": "as §1"}, "[18]": {"target": "Fuc(a1-2)Gal(b1-3)[Fuc(a1-4)]GlcNAc(b1-3)[Gal(b1-4)GlcNAc(b1-6)]Gal(b1-4)Glc", "procedure,_shortened": "as §1"}, "Fuc(a1-2)Gal(b1-4)Glc": {"target": "Fuc(a1-2)Gal(b1-4)Glc", "procedure,_shortened": "as §1"}, "Fuc(a1-2)Gal(b1-4)Glc6S": {"target": "Fuc(a1-2)Gal(b1-4)Glc6S", "procedure,_shortened": "as §1"}, "Fuc(a1-2)Gal(b1-4)GlcNAc": {"target": "Fuc(a1-2)Gal(b1-4)GlcNAc", "procedure,_shortened": "as §1"}, "[19]": {"target": "Fuc(a1-2)Gal(b1-4)GlcNAc(b1-2)Man", "procedure,_shortened": "as §1"}, "[20]": {"target": "Fuc(a1-2)Gal(b1-4)GlcNAc(b1-2)Man(a1-3)[Fuc(a1-2)Gal(b1-4)GlcNAc(b1-2)Man(a1-6)]Man(b1-4)GlcNAc(b1-4)GlcNAc", "procedure,_shortened": "as §1"}, "[21]": {"target": "Fuc(a1-2)Gal(b1-4)GlcNAc(b1-2)Man(a1-3)[Fuc(a1-2)Gal(b1-4)GlcNAc(b1-2)Man(a1-6)]Man(b1-4)GlcNAc(b1-4)[Fuc(a1-6)]GlcNAc", "procedure,_shortened": "as §1"}, "[22]": {"target": "Fuc(a1-2)Gal(b1-4)GlcNAc(b1-2)[Fuc(a1-2)Gal(b1-4)GlcNAc(b1-4)]Man(a1-3)[Fuc(a1-2)Gal(b1-4)GlcNAc(b1-2)Man(a1-6)]Man(b1-4)GlcNAc(b1-4)GlcNAc", "procedure,_shortened": "as §1"}, "[23]": {"target": "Fuc(a1-2)Gal(b1-4)GlcNAc(b1-3)Gal(b1-4)GlcNAc", "procedure,_shortened": "as §1"}, "[24]": {"target": "Fuc(a1-2)Gal(b1-4)GlcNAc(b1-3)Gal(b1-4)GlcNAc(b1-2)Man(a1-3)[Fuc(a1-2)Gal(b1-4)GlcNAc(b1-3)Gal(b1-4)GlcNAc(b1-2)Man(a1-6)]Man(b1-4)GlcNAc(b1-4)GlcNAc", "procedure,_shortened": "as §1"}},
  "note": "The other results are listed elsewhere or left out.",
  "data": [
    {"binder": "PX9937F-bfa-516-16-516 (Bacteroides fragilis) (protein) LDIDPTSSIADSNYWKTEAQFSTFNVGLHALLRECSFNFFLLGEPRADIYGDVPFGGEATQGMERLPFNTINKENTGISNFAGMYKVINQINLMIAKTKETTVLSEAGKNYYLGEAYGMRAYLYFHLLRSWGDVILYLDYTNGASLDLSNLSKAASPAEEVMKQIKEDITASEKGFGSDYSFKYGRYYWSMAATQMLKGEVYLWSGRQMGGGTADYTTAKTALQSIVSNANVSLQDDFSKVFAYNNKDNSEIIFSIRNAKDEYNMWDDRFRQNLVPQQAYMTSTYCNKEGVSFKDLPEGQLNGLIRLQIRYDLYNKAFRDGDTRKDASMTAVYQKQQDGTVKYIAPFCNKYQGVLLDGASQRSFLNDYPIYRYADCLLLLAEAKALLGEDPTAEINQVRERAYGKEFFEANKATLAYPNDKGDFYTDNKYMSGDEDPLEAILKERMREFMFEGKRWYDLRLLGADYVTKRTSAVATRLLWPINESVLTDNPALKQTPGYQN", "values": [
      {"measurement": "glycan array binding signal (z-score)", "setting": "Fuc(a1-2)Gal", "value": 0.177},
      {"measurement": "glycan array binding signal (z-score)", "setting": "Fuc(a1-2)Gal(b1-3)GalNAc", "value": -0.221},
      {"measurement": "glycan array binding signal (z-score)", "setting": "[1]", "value": -0.365},
      {"measurement": "glycan array binding signal (z-score)", "setting": "[2]", "value": 0.373},
      {"measurement": "glycan array binding signal (z-score)", "setting": "[3]", "value": 0.076},
      {"measurement": "glycan array binding signal (z-score)", "setting": "[4]", "value": 0.493},
      {"measurement": "glycan array binding signal (z-score)", "setting": "[5]", "value": -0.287},
      {"measurement": "glycan array binding signal (z-score)", "setting": "Fuc(a1-2)Gal(b1-3)GlcNAc", "value": -0.31},
      {"measurement": "glycan array binding signal (z-score)", "setting": "[6]", "value": 0.046},
      {"measurement": "glycan array binding signal (z-score)", "setting": "[7]", "value": 0.127},
      {"measurement": "glycan array binding signal (z-score)", "setting": "[8]", "value": -0.272},
      {"measurement": "glycan array binding signal (z-score)", "setting": "[9]", "value": -0.3},
      {"measurement": "glycan array binding signal (z-score)", "setting": "[10]", "value": 1.06},
      {"measurement": "glycan array binding signal (z-score)", "setting": "[11]", "value": 0.072},
      {"measurement": "glycan array binding signal (z-score)", "setting": "[12]", "value": -0.097},
      {"measurement": "glycan array binding signal (z-score)", "setting": "[13]", "value": -0.091},
      {"measurement": "glycan array binding signal (z-score)", "setting": "[14]", "value": -0.318},
      {"measurement": "glycan array binding signal (z-score)", "setting": "[15]", "value": 0.059},
      {"measurement": "glycan array binding signal (z-score)", "setting": "[16]", "value": -0.23},
      {"measurement": "glycan array binding signal (z-score)", "setting": "[17]", "value": -0.103},
      {"measurement": "glycan array binding signal (z-score)", "setting": "[18]", "value": -0.259},
      {"measurement": "glycan array binding signal (z-score)", "setting": "Fuc(a1-2)Gal(b1-4)Glc", "value": -0.109},
      {"measurement": "glycan array binding signal (z-score)", "setting": "Fuc(a1-2)Gal(b1-4)Glc6S", "value": 0.18},
      {"measurement": "glycan array binding signal (z-score)", "setting": "Fuc(a1-2)Gal(b1-4)GlcNAc", "value": -0.216},
      {"measurement": "glycan array binding signal (z-score)", "setting": "[19]", "value": -0.08},
      {"measurement": "glycan array binding signal (z-score)", "setting": "[20]", "value": -0.256},
      {"measurement": "glycan array binding signal (z-score)", "setting": "[21]", "value": -0.139},
      {"measurement": "glycan array binding signal (z-score)", "setting": "[22]", "value": 0.264},
      {"measurement": "glycan array binding signal (z-score)", "setting": "[23]", "value": -0.104},
      {"measurement": "glycan array binding signal (z-score)", "setting": "[24]", "value": -0.159}
    ]}
  ]
}
